# Laboratory results taken from PubChem BioAssay AID651820 (National Center for Advancing Translational Sciences (NCATS), 2012).
# Out of some 340,000 compounds screened, about 12,000 (3.5%) were called active. This list was built around the results that the source calls inconclusive (neither active nor inactive); the mix of calls is not that of the screen. Calls come from the whole dose curve; as a rule, active = well fitted inhibition curve with a large enough effect; inconclusive = small, poorly fitted or top-dose-only effect, or another doubt; inactive = no such curve, though single readings can be large or run the other way. No potency is given beside an inconclusive call; the fits are too rough.
# Assay: qHTS Assay for Inhibitors of Hepatitis C Virus (HCV)
# Settings: Huh7.5.1 HCVcc-Cre (HCVcc is cell-culture hepatitis C virus) infection, luciferase reporter, 44 h; series mostly up to 41.8 µM
# Procedure, shortened: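 Compounds are dispensed onto cells plated 4 h earlier at 1,000 per well, with HCVcc-Cre virus (about 0.5 moi) added next. Following 44 h of culture, luminescent signal is measured for 15 sec after 15 min with substrate at room temperature.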
# Potency is the fitted concentration of half-maximal effect; tags give direction and shape of the fitted curve.
row,SMILES,Potency
1,O=C(Nc1cccc(NC(=O)c2cccc(F)c2)c1)c1ccccc1,inactive
2,CCOc1ccc(S(=O)(=O)N2CCN(C(=O)c3cc4c(s3)CCCC4)CC2)cc1,"inconclusive [inhibitor, partial curve]"
3,CCCCn1c(N)c(N(Cc2ccccc2OC)C(=O)COc2cc(C)ccc2Cl)c(=O)[nH]c1=O,"inconclusive [inhibitor, single point]"
4,Cc1ccc(Cl)cc1NC(=O)C(=O)N1CCCCC1,inactive
5,FC(F)(F)c1cccc(Nc2nc(N3CCOCC3)nc(N3CCOCC3)n2)c1,"inconclusive [inhibitor, single point]"
6,O=C(NC(NC1CCS(=O)(=O)C1)C(Cl)(Cl)Cl)c1ccc(Br)cc1 (stereo not given),"inconclusive [inhibitor, single point]"
7,O=[N+]([O-])c1cccc2ccc(/C=C/c3ccc(F)cc3)nc12,active: 1 µM
8,CCOc1cc(/C=N/NC(=O)COc2cccc(C)c2)ccc1OC(=O)c1cccs1,"inconclusive [inhibitor, full curve, poor fit]"
9,O=C(NCCc1ccccc1Cl)c1ccc2nc3ccccc3c(=O)n2c1,"inconclusive [inhibitor, partial curve]"
10,COc1ccc(/C(C)=N/NC(=O)CNC(=O)CCc2ccccc2)c(OC)c1,"inconclusive [inhibitor, single point]"
11,CC(=O)c1c(COC(=O)c2ccccc2Cl)nc2ccccc2[n+]1[O-],"inconclusive [inhibitor, single point]"
12,Clc1ccc(Nc2nc(-c3cccs3)cs2)nc1,"inconclusive [inhibitor, single point]"
13,O=C(Cn1c(=O)oc2cc(S(=O)(=O)NCc3ccccc3)ccc21)N1CCCC1,inactive
14,COc1ccc2nc(NC(=O)C3CCN(S(=O)(=O)c4cccs4)CC3)sc2c1,active: 10 µM
15,C/C(CCN1CCc2nc(-c3ccccc3)c(-c3ccccc3)cc2C1)=N\O[C@@H](C)c1cc(-c2c(C)cc(C)cc2C)no1,"inconclusive [inhibitor, single point]"
16,CCOC(=O)N1CCN(S(=O)(=O)c2ccc(OCC)c3ccccc23)CC1,"inconclusive [inhibitor, single point]"
17,C#CCOCCOCCOCCNc1nc(N2CCOCC2)nc(N2CCN(C(=O)CCCCCCCCCCNC(=O)[C@H](CO)n3cc(CCCSC)nn3)CC2)n1,inactive
18,Cc1ccc(N2C(N)=C(C#N)C(c3cc(CN4CCOCC4)cs3)C3=C2CC(C)(C)CC3=O)cc1 (stereo not given),"inconclusive [inhibitor, single point]"
19,Cc1snc(SCc2ccc(F)cc2)c1C#N,inactive
20,COc1ccc(C(=O)NCc2c(C)oc(C)c2C(=O)O)cc1,inactive
21,C/C(Cl)=C\Cn1c(Nc2cccc(C)c2)nc2c1c(=O)n(C)c(=O)n2C,"inconclusive [inhibitor, full curve]"
22,CN(C)c1ccc2nc3ccc(=[N+](C)C)cc-3sc2c1,"inconclusive [inhibitor, full curve, poor fit]"
23,COc1ccc(-c2cnnc(N/N=C/c3ccc(-c4ccc([N+](=O)[O-])cc4)o3)n2)cc1,inactive

row,SMILES,Potency
1,CC(=O)Nc1ccc(CCCCc2ccccc2)cc1,inactive
2,Cc1ccc(C(=O)NCCC2=CCCCC2)cc1S(=O)(=O)N1CCCCC1,"inconclusive [inhibitor, single point]"
3,COc1ccc(-c2cc(=O)n(-c3nc4ccccc4[nH]3)[nH]2)cc1,"inconclusive [inhibitor, single point]"
4,N#CCc1c(C#N)c(N)nc(N2CCN(c3ccc(F)cc3)CC2)c1C#N,"inconclusive [inhibitor, single point]"
5,CC1CCN(Cc2c(C(=O)N/N=C/c3ccc(C(C)(C)C)cc3)nnn2-c2nonc2N)CC1,inactive
6,O=C(Nc1ccccc1Cl)OC1CCCCC1,inactive
7,COc1cccc2[nH]c3c(N4CCCCC4)ncnc3c12,inactive
8,NS(=O)(=O)c1ccc(NC(=S)N2CCN(C(=O)C3CCCO3)CC2)cc1 (stereo not given),inactive
9,CN(CC(=O)Nc1ccc(F)cc1)C(=O)c1ccc(OCc2cn3ccccc3n2)cc1,inactive
10,CCOC(=O)Nc1nnc(-c2ccccc2OC)s1,"inconclusive [inhibitor, partial curve, poor fit]"
11,CC[C@H](C)[C@@H](CN[C@H](C)CNC)NCCC(c1ccccc1)c1ccccc1,"inconclusive [inhibitor, partial curve]"
12,CC(=O)N1CCN(C(=O)CCc2cc(C(C)(C)C)c(O)c(C(C)(C)C)c2)CC1,"inconclusive [inhibitor, partial curve, poor fit]"
13,CCOC(=O)C(C)/C(C)=N/NC(N)=S (stereo not given),inactive
14,Cc1nn(C)c(Cl)c1CN1CCCC(C(=O)Nc2ccc(-c3cscn3)cc2)C1 (stereo not given),"inconclusive [inhibitor, single point]"
15,CC(C)(C)NC(=O)c1cc(NC(=O)c2cccs2)cc(NC(=O)c2cccs2)c1,"inconclusive [inhibitor, single point]"
16,CCOc1cc(/C=C/c2nc3cc(C)c(C)cc3s2)ccc1OCC(=O)N1CCOCC1,inactive
17,Cc1ccc(S(=O)(=O)n2nccc2-c2c(-c3ccc(Cl)cc3)noc2C)cc1,active: 14.1 µM
18,CCN(CC(=O)Nc1c(F)cccc1F)C(=O)c1ccc(N2C(=O)c3ccccc3C2=O)cc1,inactive
19,Cc1cc(C)c(C#N)c(SCC(=O)c2ccc(Cl)cc2Cl)n1,"inconclusive [inhibitor, partial curve]"
20,CCCCN(C(=O)c1ccco1)c1nnc(-c2cc(OC)c(OC)c(OC)c2)s1,"inconclusive [inhibitor, partial curve]"
21,CCc1ccccc1OCC(=O)Nc1cc(S(=O)(=O)N(CC)CC)ccc1N1CCOCC1,"inconclusive [inhibitor, partial curve]"
22,CCOC(=O)c1c(C)oc2cc(Br)c(OC(C)C(=O)OCC)cc12 (stereo not given),"inconclusive [inhibitor, partial curve]"
